Measured values from publication PMC4336329 (PLoS ONE, 2015).
Hit rate of the full screen: of about 310,000 compounds, about 14,000 (4.5%) showed an effect of 50% or more. Effects have a minus sign here. The list shows a part of the results.

What follows are compounds tested against human ether-à-go-go-related gene (hERG) potassium channel (human, UniProt Q12809) (assay: primary screen, population patch clamp on CHO cells stably expressing hERG).
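Further: peak tail current of the secondary pulse compared with the same well before compound.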

Sequence of human ether-à-go-go-related gene (hERG) potassium channel (Q12809 whole entry, looked up): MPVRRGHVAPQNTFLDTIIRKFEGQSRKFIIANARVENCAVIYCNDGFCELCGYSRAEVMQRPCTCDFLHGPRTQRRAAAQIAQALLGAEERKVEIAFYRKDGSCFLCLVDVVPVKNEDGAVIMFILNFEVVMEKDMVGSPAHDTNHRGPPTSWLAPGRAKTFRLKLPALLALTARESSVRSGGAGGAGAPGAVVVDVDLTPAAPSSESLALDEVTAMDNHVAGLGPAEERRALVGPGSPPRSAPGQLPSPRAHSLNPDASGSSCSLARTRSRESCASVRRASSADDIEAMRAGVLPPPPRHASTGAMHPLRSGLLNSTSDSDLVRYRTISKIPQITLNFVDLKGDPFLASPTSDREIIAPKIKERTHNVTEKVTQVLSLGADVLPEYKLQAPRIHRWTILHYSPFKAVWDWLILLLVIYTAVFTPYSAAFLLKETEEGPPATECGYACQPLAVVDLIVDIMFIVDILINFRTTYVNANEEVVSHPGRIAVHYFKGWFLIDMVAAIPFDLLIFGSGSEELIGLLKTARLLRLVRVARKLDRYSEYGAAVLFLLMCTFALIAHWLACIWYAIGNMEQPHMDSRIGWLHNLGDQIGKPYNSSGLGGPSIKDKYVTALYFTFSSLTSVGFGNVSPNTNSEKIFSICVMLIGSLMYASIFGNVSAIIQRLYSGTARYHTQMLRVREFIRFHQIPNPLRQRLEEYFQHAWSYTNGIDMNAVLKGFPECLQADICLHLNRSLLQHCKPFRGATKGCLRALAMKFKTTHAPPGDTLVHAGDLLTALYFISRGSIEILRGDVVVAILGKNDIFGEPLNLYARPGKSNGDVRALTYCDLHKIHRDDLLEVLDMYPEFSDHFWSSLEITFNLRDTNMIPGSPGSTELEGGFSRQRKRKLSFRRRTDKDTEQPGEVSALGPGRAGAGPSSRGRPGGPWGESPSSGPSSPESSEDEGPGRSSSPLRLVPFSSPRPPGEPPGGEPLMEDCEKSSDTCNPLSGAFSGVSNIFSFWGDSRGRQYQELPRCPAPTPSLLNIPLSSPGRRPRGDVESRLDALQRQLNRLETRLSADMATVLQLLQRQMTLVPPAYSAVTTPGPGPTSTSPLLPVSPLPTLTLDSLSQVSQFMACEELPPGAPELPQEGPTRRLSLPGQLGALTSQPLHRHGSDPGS

Row | SMILES | hERG current change (%, negative = inhibition) at 10uM
1 | O=C(N/N=C/c1cn(-c2ccccc2)nc1-c1cccnc1)c1ccccc1 | -60.7%
2 | Fc1cccc(CCN2CCNC[C@@H]2c2ccccc2)c1 | 3.63%
3 | Cc1cc(NC(=O)CSCC(=O)NCc2cccc(C(F)(F)F)c2)no1 | -18.7%
4 | COC(=O)c1c(N)sc(C(C)=O)c1C | 0.466%
5 | S=C1NCCOCCOCCOCCOCCNC(=S)N2CCOCCOCCN1CCOCC2 | 8.16%
6 | O=C(CCC(=O)N(c1cccc(F)c1)C(C(=O)NC1CCCC1)c1ccncc1)Nc1cccnc1 (stereo not drawn) | 14.3%
7 | O=C(NC1CCCCC1)c1cccnc1Sc1ccccc1Cl | 7.67%
8 | COc1ccc(C(C)(C)C)cc1NC(=O)c1cncc(Br)c1 | 4.74%
9 | COCCNC(=O)CS(=O)Cc1nc(-c2ccc(OC)cc2)oc1C (stereo not drawn) | 17%
10 | Cn1nc(C(=O)Nc2cc(Cl)ccc2N2CCCC2)c2ccccc2c1=O | -11.7%
11 | O=C(Nc1nc2ccccc2[nH]1)C1CC1 | 11.9%
12 | CN(C)CCNc1oc(COc2ccc(Cl)cc2Cl)nc1C#N | 15.3%
13 | CC(C)[C@H]1C=C(C(=O)O)O[C@@H](OCCCCO)C1 | 12.1%
14 | CC(C)CNC(=O)c1ccc(Cl)c(NC(=O)COc2ccccc2)c1 | 6.97%
15 | CSCCC(NS(=O)(=O)c1cccc(C(F)(F)F)c1)C(=O)N(C)Cc1ccc2c(c1)OCCO2 (stereo not drawn) | -8.66%
16 | O=C(CN1CCc2ccccc2C1)Nc1ccccc1C(=O)NC1CC1 | -24.5%
17 | O=C(CCNC(=O)c1ccccc1)NCC1CCCCC1 | 4.32%
18 | O=C(NCCO)c1cccc2c1C(=O)c1ccccc1-2 | -1.93%
19 | N#C/C(=N\Nc1ccc(Cl)cc1)C(=O)c1ccccc1 | 13.3%
20 | COc1ccccc1NC(=S)NN1CCN(C)CC1 | -10.6%
21 | COC(=O)C1=CN(c2ccc(F)cc2)C=C(C(=O)OC)C1c1cccc(Br)c1 | 10.1%
22 | COc1ccc(CCNC(=O)C(C(=O)c2ccccc2)n2cc(Cl)ccc2=O)cc1OC (stereo not drawn) | 7.31%

Row | SMILES | hERG current change (%, negative = inhibition) at 10uM
23 | CCc1noc(C)c1C(=O)Nc1nc(-c2ccc(NC(C)=O)cc2)cs1 | 1.49%
24 | CCOC(=O)N1CCN(C(=O)CN(c2cccc(C(F)(F)F)c2)S(=O)(=O)c2ccccc2)CC1 | -43.6%
25 | COC(=O)CCn1nnc(-c2ccc(C)cc2)n1 | 12.3%
26 | O=C(Cc1ccccc1)NC1CCS(=O)(=O)C1 (stereo not drawn) | 5.34%
27 | Cc1ccc(S(=O)(=O)CC(N)=O)cc1 | -6.1%
28 | CC(OC(=O)c1ccc(S(=O)(=O)N2CCOCC2)cc1)c1ccccc1 (stereo not drawn) | -28.9%
29 | Cc1ccccc1NC(=O)NC1(C(=O)N2CCCC2)CCCCC1 | 9.33%
30 | Cc1ccc(C(=O)Nc2ccc(C(=O)O)cc2)cc1S(=O)(=O)NCc1ccccc1 | 19.5%
31 | Cn1c(=O)c2c(nc(CN3CCN(Cc4ccccc4)CC3)n2Cc2cccc(Cl)c2)n(C)c1=O | -59.2%
32 | COc1ccc(NC(=O)CN(C)C(=O)CCCc2c[nH]c3ccccc23)cc1 | -11.7%
33 | COc1ccc(OC)c(NC(=O)C2CC2c2ccccc2)c1 (stereo not drawn) | -14.9%
34 | CC(C)CC1Nc2ncnc(N3CCCCC3)c2N(Cc2ccccc2)C1=O.O=C(O)C(F)(F)F (stereo not drawn) | -22.8%
35 | CCOC(=O)CCc1c(C)n(CC)c2cc(-c3ccccc3OC)nn2c1=O | -17.7%
36 | COc1ccc(N(CC(=O)NCc2cccnc2)S(=O)(=O)c2ccc(C)c([N+](=O)[O-])c2)cc1 | -36.6%
37 | CC(C)Cn1c(N)c(C(=O)COC(=O)c2ccc3ccccc3n2)c(=O)n(C)c1=O | -59.9%
38 | COc1ccc(/C(O)=C2/C(=O)C(=O)N(c3ccccn3)C2c2ccc(OC)c(OC)c2)cc1 (stereo not drawn) | -0.694%
39 | COc1ccc(NC(=O)CSCC(=O)Nc2ccc(S(=O)(=O)N3CCOCC3)cc2)cc1 | -11.2%
40 | COC(=O)C1=C(C)N(CCc2ccccc2)C(=O)C1 | 2.86%
41 | Cc1ccc2c(c1)N(C(=O)CCC(=O)NCc1cccnc1)CC(C)O2 (stereo not drawn) | -30.8%
42 | CCOC(=O)C1(CC2CC2)CCN(Cc2cn[nH]c2-c2ccccc2)CC1 | -79.5%
43 | CCCn1c(N)c(N(CCOC)C(=O)c2cc3ccccc3cc2OC)c(=O)[nH]c1=O | 5.95%
44 | N#C/C(=N\Nc1ccc(Cl)cc1)C(=O)c1ccsc1 | 32.4%

Row | SMILES | hERG current change (%, negative = inhibition) at 10uM
45 | COc1ccccc1C(=O)N1CCN(CCc2ccccc2)CC1 | -48.8%
46 | CCc1cc2c(cc3c(=O)n(CC(=O)N4CCN(C)CC4)ncn32)s1 | -14.3%
47 | COc1ccc(-c2[nH]c(-c3cccc(OC)c3)nc2SCC(=O)NC2CCCC2)cc1 | -40%
48 | Cn1ncc(Br)c1C(=O)N1CCN(C(=O)c2ccco2)CC1 | -1.4%
49 | Fc1ccccc1NC(=S)Nc1cccc2cnccc12 | 46.8%
50 | COc1ccc(Oc2c(C)oc3cc(OC(=O)N4CCOCC4)ccc3c2=O)cc1 | -2.02%
51 | Cc1cc(C)n2nc(SCC(=O)N(CC(C)C)c3c(N)n(CC(C)C)c(=O)[nH]c3=O)nc2n1 | 11.2%
52 | Clc1ccccc1-c1nnc2sc(-c3ccncc3)nn12 | -3.1%
53 | CC(C)=CC(=O)N1CC[C@@H](N2CCN(c3ccccc3F)CC2)[C@H](O)C1 | 1.23%
54 | Cc1cccc(NC(=S)Nc2ccc(Oc3ccccc3)cc2)n1 | 13.1%
55 | O=C(Cc1cn2ccsc2n1)NCCc1ccc(F)cc1 | 10.6%
56 | COc1ccc(Cl)cc1N(CC(=O)Nc1ccc2c(c1)OCO2)S(C)(=O)=O | -24%
57 | O=C1CCC(/C=C/c2ccccc2)=NN1Cc1ccccc1Cl | 10.5%
58 | CCOc1ccc(NC(=O)CN2CCN(CC(=O)Nc3ccc(F)c(F)c3)CC2)cc1 | -78.3%
59 | CCCCCOc1ccc(C(=O)Nc2ccc(N3CCOCC3)cc2N2CCOCC2)cc1 | 2.67%
60 | CC(C)(C)n1nnnc1C(c1cccc(C#N)c1)N1CCCCCC1 (stereo not drawn) | -4.75%
61 | COc1cccc(-n2c(SCC(N)=O)nc3ccccc3c2=O)c1 | -29.6%
62 | COc1ccc(C(=O)Nc2ccc(C(=O)N3CCCCC3C)cc2)c(OC)c1OC (stereo not drawn) | -24.2%
63 | CCN(CC)S(=O)(=O)c1ccc(Cl)c(C(=O)Oc2cccnc2)c1 | -36.8%
64 | CCCC(=O)NCCc1cc2ccc(OC)cc2[nH]c1=O | 1.74%
65 | Cc1cc(NC(=O)COC(=O)c2cc([N+](=O)[O-])ccc2N2CCOCC2)ccc1Br | -4.03%
66 | CC(C)(O)C#Cc1ccc(CN2CCN(CCc3ccccc3)C(CCO)C2)s1 (stereo not drawn) | -30.7%

Row | SMILES | hERG current change (%, negative = inhibition) at 10uM
67 | Cc1nnc(SCC(=O)Nc2cccc(Cl)c2)n1CC1CCCO1 (stereo not drawn) | -7.41%
68 | Cc1ccccc1NC(=O)NC1(C(=O)NCC2CCCO2)CCCCC1 (stereo not drawn) | 17.5%
69 | COc1ccc(-n2cnnc2SCC(=O)c2ccc(S(=O)(=O)N3CCOCC3)cc2)cc1 | -33.3%
70 | CCCCNc1ccc(C(CC(N)=O)NC(=O)Cc2cccc3ccccc23)cc1[N+](=O)[O-] (stereo not drawn) | 4.73%
71 | COC(=O)[C@@H](C)NC(=O)c1ccc2oc(CCc3ccccc3)nc2c1 | -3.54%
72 | CCOC(=O)c1ccc(N2CCN(c3ccc(F)cc3)CC2)c(NC(=O)Nc2cccc(OC)c2)c1 | 12.1%
73 | COc1cc(C(=O)NCCC(C)C)c([N+](=O)[O-])cc1OC | -7.18%
74 | COc1cc(OC)cc(C(=O)N2CCCC(Nc3ccc(F)cc3)C2)c1 (stereo not drawn) | -4.72%
75 | Cc1cccc(C(=O)NNC(=O)c2ccc(Cl)cc2)c1O | -1.78%
76 | O=C(Nc1cccc(F)c1)C1C2C=CC3(CN(CCCN4CCOCC4)C(=O)C13)O2 (stereo not drawn) | -8.87%
77 | Cc1ccc(-c2n[nH]c(=O)c3ccccc23)c(C)c1 | 17.3%
78 | Cc1cc(C)c(O)c(-c2cc(C(=O)NCCc3ccc(S(N)(=O)=O)cc3)[nH]n2)c1 | 21.3%
79 | O=[N+]([O-])c1ccc(Oc2ccc(S(=O)(=O)Nc3ccccc3)cc2)cc1 | -48.8%
80 | O=C1CCN(CCCc2ccccc2)CCN1[C@H](CO)c1ccccc1 | -29.7%
81 | CSc1cccc(NC(=S)N2CCC(N(C)C3CCCC3)CC2)c1 | -29.2%
82 | CCCCc1nc2cc(C(=O)NCc3nccn3CC)ccc2o1 | -16.5%
83 | Cc1cc(NC(=O)C(C)Oc2ccc(C(C)(C)C)cc2)no1 (stereo not drawn) | -0.909%
84 | Cc1cccc2c(N=O)c(O)n(CCc3ccccc3)c12 | 20.2%
85 | CCCCn1c(N)c(N(CC(C)C)C(=O)c2ccc(Br)s2)c(=O)[nH]c1=O | -45.9%
86 | COc1cc(C(=O)NC(=S)Nc2ccc([N+](=O)[O-])cc2C)cc(OC)c1OC | 1.65%
87 | CCOc1ccc(CCNC(=O)Cc2ccc(S(=O)(=O)N3CCOCC3)s2)cc1OCC | -23.6%
